# Experimental data as given in US20100184636A1 (POSTECH ACADEMY INDUSTRY FOUNDATION, published 2010).
# Biological target: myc-mTOR^wt (human, UniProt P42345)
# Test: co-IP of myc-mTOR with PLD2 mutants (FIG. 6)
# Experimental: After harvesting COS7 cells, total extracts were prepared by brief sonication in ice-cold lysis buffer (40 mM HEPES pH7.5, 120 mM NaCl, 1 mM EDTA, 10 mM pyrophosphate, 10 mM glycerophosphate, 50 mM NaF, 1.5 mM Na₃VO₄, 0.5% CHAPS, 1 mM PMSF, protease inhibitor cocktails). Clarified extracts were mixed with 2 μg of the respective antibodies. Then protein A-Sepharose beads were added to isolate the antibody complex. After four washings with lysis buffer, the final immunoprecipitates were washed once with wash buffer (50 mM HEPES pH7.5, 150 mM NaCl), and then subjected to SDS-PAGE using Hyperfilm (Amersham Pharmacia Biotech), nitrocellulose membranes (Watmann), Power supply (Amersham Pharmacia Biotech), Electrophoretic Transfer unit (Hoefer Scientific Instruments), and ECL™ (Amersham Pharmacia Biotech).
binder,measurement,value
"PLD2^F265A (enzyme, also called PLD2 point mutant F265A) not shown",binding result,no binding
"PLD2^E266R (enzyme, also called PLD2 point mutant E266R) not shown",binding result,no binding
